Some of the results follow.

The results in this text go back to a collection of fitness landscapes (doi:10.1126/science.1257360).

B1: PhoQ; a variant is named by its letters at X, in order, P23837 (parent)
chain: MKKLLRLFFPLSLRVRFLLATAAVVLVLSLAYGMVALIGYSVSFDKTTFRLLRGESNLFYTLAKWENNKLHVELPENIDKQSPTMTLIYDENGQLLWAQRDVPWLMKMIQPDWLKSNGFHEIEADVNDTSLLLSGDHSIQQQLQEVREDDDDAEMTHSVAVNVYPATSRMPKLTIVVVDTIPVELKSSYMVWSWFIYVLSANLLLVIPLLWVAAWWSLRPIEALAKEVRELEEHNRELLNPATTRELTSLVRNLNRLLKSERERYDKYRTTLTDLTHSLKTPLXXLQXXLRSLRSEKMSVSDAEPVMLEQISRISQQIGYYLHRASMRGGTLLSRELHPVAPLLDNLTSALNKVYQRKGVNISLDISPEISFVGEQNDFVEVMGNVLDNACKYCLEFVEISARQTDEHLYIVVEDDGPGIPLSKREVIFDRGQRVDTLRPGQGVGLAVAREITEQYEGKIVAGESMLGGARMEVIFGRQHSAPKDE

This test covers variants of B1. Put plainly: enrichment ratio after two sorts for PhoP signalling (ratio (wild type AVST 3.29)); higher = more functional. To be noted: with PhoP (E. coli).
As for AVQV, the enrichment ratio was ≤ 0.25.
The result for YRPD reads ≤ 0.25; that for KLNL, ≤ 0.25.
In the case of GHGR, the enrichment ratio is ≤ 0.25.
With AMRD the figure was ≤ 0.25; with WSQC, ≤ 0.25; with FHAH, ≤ 0.25.
Turning to PAHE, the enrichment ratio is ≤ 0.25.
LLTL: the enrichment ratio was ≤ 0.25.
The result for GIWW reads ≤ 0.25; that for DFTD, ≤ 0.25.
With LGHF the figure was ≤ 0.25.
The result for SHHA reads ≤ 0.25.
For the variant SSPW, the enrichment ratio is ≤ 0.25.
The result for LMKH reads ≤ 0.25; that for DNMT, ≤ 0.25.
As for MIVL, the enrichment ratio was found to be 2.51.
Take LMLP: the enrichment ratio was ≤ 0.25.
The result for EQMI reads ≤ 0.25; that for SWIW, ≤ 0.25.
Turning to PPAQ, the enrichment ratio is ≤ 0.25.
In the case of YWMI, the enrichment ratio is ≤ 0.25.
On to LWWH, for which the enrichment ratio is ≤ 0.25.
With YGCK the figure was ≤ 0.25.
The result for NPKC reads ≤ 0.25; that for KNQQ, ≤ 0.25.
The result for NAPG reads ≤ 0.25; that for QYKL, ≤ 0.25; that for FQWR, ≤ 0.25.
Consider GEML, for which the enrichment ratio was ≤ 0.25.
The result for YALE reads 14.7; that for RAHW, ≤ 0.25.
As to TLTA, the enrichment ratio turned out to be 10.5.
The result for ATDW reads ≤ 0.25.
The result for KPLN reads ≤ 0.25; that for FQCR, ≤ 0.25.
With GRIY the figure was ≤ 0.25.
As for PRST, the enrichment ratio was ≤ 0.25.
For AMRM, the enrichment ratio is ≤ 0.25.
Regarding AIAY, the enrichment ratio was 6.61.
The result for HRTM reads ≤ 0.25; that for RDMA, ≤ 0.25; that for ANPQ, ≤ 0.25.
With YGYF the figure was ≤ 0.25.
With NIDL, the enrichment ratio was ≤ 0.25.
The result for AYEK reads ≤ 0.25; that for NFAV, ≤ 0.25; that for HDQC, ≤ 0.25.
For the variant GPSI, the enrichment ratio is ≤ 0.25.
With HSEL the figure was ≤ 0.25; with TKHT, ≤ 0.25.
GKGI: the enrichment ratio was ≤ 0.25.
With EIPA the figure was ≤ 0.25.
With FISQ the figure was ≤ 0.25; with NWIE, ≤ 0.25; with IQNF, ≤ 0.25.
Take SCVQ: the enrichment ratio turned out to be 3.12.
The result for AKLD reads ≤ 0.25.
Regarding WEGA, the enrichment ratio is ≤ 0.25.
With GIYI the figure was 0.548.
With RENG the figure was ≤ 0.25; with RSND, ≤ 0.25; with QTIF, ≤ 0.25.
The result for SHKE reads ≤ 0.25.
AWHY: the enrichment ratio was ≤ 0.25.
The result for EMVL reads ≤ 0.25; that for ICGL, ≤ 0.25; that for PYLG, ≤ 0.25.
On to LFMG, for which the enrichment ratio was ≤ 0.25.
The result for TEDS reads 3.29; that for VDTY, ≤ 0.25.
The result for VHRW reads ≤ 0.25; that for LSHV, 0.727; that for SPMN, ≤ 0.25.
With PHNS the figure was ≤ 0.25; with ADQC, ≤ 0.25.
SASD: the enrichment ratio was ≤ 0.25.
With VDWH the figure was ≤ 0.25.
Regarding RYGI, the enrichment ratio is ≤ 0.25.
The result for YKQQ reads ≤ 0.25.
The result for WSLM reads 9.91.
On to TNHG, for which the enrichment ratio is ≤ 0.25.
With KLWF the figure was ≤ 0.25; with MLNI, ≤ 0.25.
As to ISNQ, the enrichment ratio was ≤ 0.25.
YCHK: the enrichment ratio was ≤ 0.25.
Take QFGW: the enrichment ratio was ≤ 0.25.
With NWFK the figure was ≤ 0.25.
Take YYVC: the enrichment ratio was ≤ 0.25.
With KRLG the figure was ≤ 0.25; with TFAK, ≤ 0.25; with SVMF, 7.14.
HFPF: the enrichment ratio is ≤ 0.25.
Turning to TGTW, the enrichment ratio is ≤ 0.25.
The result for DCNM reads ≤ 0.25.
In the case of LTPE, the enrichment ratio was ≤ 0.25.
The result for AWPC reads ≤ 0.25.
The result for IPLW reads ≤ 0.25.
The result for IMGV reads ≤ 0.25; that for SNRI, ≤ 0.25.
On to NPCW, for which the enrichment ratio is ≤ 0.25.
With WYMY the figure was ≤ 0.25; with HRCG, ≤ 0.25; with WILH, ≤ 0.25.
With VTGF the figure was ≤ 0.25.
The result for QRAA reads ≤ 0.25; that for STMI, 14.9.
On to DKNG, for which the enrichment ratio is ≤ 0.25.
The result for MALQ reads 13.1.
For GLSG, the enrichment ratio amounted to 3.46.
As to PNKE, the enrichment ratio is ≤ 0.25.
The result for NVCG reads ≤ 0.25; that for RCLD, ≤ 0.25.
THWI: the enrichment ratio is ≤ 0.25.
With YRDH the figure was ≤ 0.25.
The result for IQDV reads ≤ 0.25.
The result for NRKE reads ≤ 0.25; that for ITIA, ≤ 0.25.
On to QFVD, for which the enrichment ratio was ≤ 0.25.
For KFPN, the enrichment ratio is ≤ 0.25.
TSSE: the enrichment ratio was determined as 8.88.
The result for PWRL reads ≤ 0.25; that for GHAA, ≤ 0.25.
For the variant FKCV, the enrichment ratio was ≤ 0.25.
The result for DDMC reads ≤ 0.25.
The result for HLCN reads ≤ 0.25; that for HTFK, ≤ 0.25; that for FDSL, ≤ 0.25.
With RCYD the figure was ≤ 0.25; with TIDN, ≤ 0.25.
As for FKMV, the enrichment ratio is ≤ 0.25.
Consider PEVT, for which the enrichment ratio is ≤ 0.25.
For the variant MIPV, the enrichment ratio was ≤ 0.25.
The result for DDFT reads ≤ 0.25.
With FCGW the figure was ≤ 0.25; with QHQG, ≤ 0.25; with SGCE, 6.72.
With GCNH the figure was ≤ 0.25; with EREA, ≤ 0.25; with QEWA, 6.62.
For GRIW, the enrichment ratio is ≤ 0.25.
As to SDSC, the enrichment ratio came out at 2.35.
The result for GDNY reads ≤ 0.25; that for NSTW, ≤ 0.25; that for TKKS, ≤ 0.25.
The result for VYRI reads ≤ 0.25.
With HMHM the figure was ≤ 0.25; with HEPD, ≤ 0.25.
EDRC: the enrichment ratio is ≤ 0.25.
The result for PLRD reads ≤ 0.25; that for SSFA, 0.262.
YAWD: the enrichment ratio is ≤ 0.25.
With AVMG the figure was 2.13.
